PubChem BioAssay AID1461 (National Center for Advancing Translational Sciences (NCATS), 2008)
Screen size: about 220,000 compounds; about 2,300 (1%) were called active. The inconclusive results got no clear call from the source; some entries with a clear call stand among them for comparison. Calls follow the shape of the dose curve; as a rule, active = well fitted inhibition curve with a large enough effect; inconclusive = small, poorly fitted or top-dose-only effect, or effect the other way; inactive = no such curve, though single readings can be large or run the other way. Potencies beside an inconclusive call are fits to weak or partial responses and may not hold up.

These compounds were tested against Neuropeptide S receptor (Homo sapiens) (UniProt Q6W5P4) (assay: qHTS Assay for Antagonists of the Neuropeptide S Receptor: cAMP Signal Transduction). Details: CHO-NPSR cells, cAMP TR-FRET, antagonist mode; activity change, negative = inhibition: at 38.3 µM (top of the series) unless noted.
% is scaled to controls: 0 for no effect and ±100 for the full control effect; potency is read from the fitted curve at half-maximal effect; tags tell the direction and shape of the fitted curve.
Also: nearly all actives have a fitted effect of over 50% in size.

Sequence of UniProt Q6W5P4 (Q6W5P4 whole entry, looked up): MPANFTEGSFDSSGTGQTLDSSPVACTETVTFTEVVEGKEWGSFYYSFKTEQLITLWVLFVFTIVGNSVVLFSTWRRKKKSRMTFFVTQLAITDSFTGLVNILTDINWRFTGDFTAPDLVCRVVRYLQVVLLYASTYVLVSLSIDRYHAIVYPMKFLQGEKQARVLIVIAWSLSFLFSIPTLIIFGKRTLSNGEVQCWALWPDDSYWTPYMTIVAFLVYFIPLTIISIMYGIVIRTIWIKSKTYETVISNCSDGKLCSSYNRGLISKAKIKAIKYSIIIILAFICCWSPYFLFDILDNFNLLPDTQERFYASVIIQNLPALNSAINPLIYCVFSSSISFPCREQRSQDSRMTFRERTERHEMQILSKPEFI

Q: With `Cc1cc(NCc2ccc(F)cc2Cl)n2nnnc2n1` as the compound, how does the Potency read?
A: inconclusive: 12.6 µM [activator, partial curve]

Q: `COc1ccc(Cc2nnc(N)s2)cc1` was tested. Which “activity change, negative = inhibition” value did it give?
A: inactive: 3.17% [at 46.1 µM]

Q: With `Cc1c(C(=O)NCC2COc3ccccc3O2)oc2ccc(S(=O)(=O)N3CCOCC3)cc12` (stereo unspecified) as the compound, how does the Potency read?
A: inconclusive: 25.1 µM [inhibitor, single point]

Q: How did the “activity change, negative = inhibition” value turn out when `Cc1cc(NC(=O)c2cc(-c3ccc(C)s3)nc3ccccc23)no1` was run?
A: inactive: -16.6% [at 46.1 µM]

Q: Which Potency does the source give for `Cc1ccc(S(=O)(=O)N(Cc2cc3ccccc3[nH]c2=O)c2cccc(C)c2)cc1` here?
A: inconclusive: 10 µM [activator, partial curve]

Q: `COc1ccc(C(C(=O)NC2CCCC2)N(C(=O)c2ccoc2C)c2ccc(C)cc2)cc1` (stereo unspecified) was tested. Which Potency did it give?
A: inconclusive: 3.98 µM [inhibitor, partial curve]

Q: With `O=C1CC(=O)N(CCNc2ncc(C(F)(F)F)cc2Cl)C(=O)N1` as the compound, how does the “activity change, negative = inhibition” value read?
A: inactive: -6.58% [at 46.1 µM]

Q: Which Potency does the source give for `Cc1cccc(N=N/C(=C\O)C(=O)c2ccc(Br)cc2)c1` here?
A: inconclusive: 10 µM [inhibitor, single point]

Q: `O=C(CN(C(=O)CSc1nnc(COc2ccccc2)o1)c1ccc(F)cc1)NC1CCCC1` was tested. Which Potency did it give?
A: inconclusive: 0.398 µM [inhibitor, full curve]

Q: With `Cc1cc(C)c2nc3sc(C(=O)N4CCOCC4)c(N)c3cc2c1` as the compound, how does the “activity change, negative = inhibition” value read?
A: inactive: -7.62%

Q: Which “activity change, negative = inhibition” value does the source give for `COc1ccc(Cc2n[nH]c(=S)n2C)cc1Br` here?
A: inactive: -12.5%

Q: Which activity change, negative = inhibition does the source give for `O=C(CCc1ccc(S(=O)(=O)N2CCOCC2)cc1)Nc1ccc2ccccc2c1` here?
A: inconclusive: -31.9% [inhibitor] [at 46.1 µM]

Q: For `Cc1cc2n(n1)C(c1ccco1)Nc1ccccc1-2` (stereo unspecified), which “activity change, negative = inhibition” value is on record?
A: inactive: 3.23% [at 46.1 µM]

Q: How did the Potency turn out when `Cc1cc(/C=C2\SC(=Nc3ccc(F)cc3)NC2=O)c(C)n1-c1ccc(S(N)(=O)=O)cc1` was run?
A: active: 10 µM

Q: With `CCn1nnnc1SCC(=O)N(C1CCCCC1)C1CCCCC1` as the compound, how does the Potency read?
A: inconclusive: 7.94 µM [inhibitor, partial curve, poor fit]

Q: `Cn1c(=O)c2c(nc(N3CCN(c4ccc([N+](=O)[O-])cc4)CC3)n2C)n(C)c1=O` was tested. Which Potency did it give?
A: inconclusive: 1.58 µM [activator, full curve, poor fit]

Q: For `CN(C)CCCN(C(=O)c1ccc2c(c1)CCCC2)c1nc2ccc(Cl)cc2s1`, which Potency is on record?
A: inconclusive: 25.1 µM [inhibitor, single point]

Q: `CCSc1nc(N2CCCCC2)c2c(c1C#N)CCCC2` was tested. Which Potency did it give?
A: inconclusive: 10 µM [inhibitor, single point]

Q: For `CCCCNC(=O)Cn1cnc2c(cnn2-c2ccc(C)c(C)c2)c1=O`, which activity change, negative = inhibition is on record?
A: inconclusive: 31.9% [activator] [at 46.1 µM]

Q: Which “activity change, negative = inhibition” value does the source give for `O=C(O)C1CCN(C(=O)CSc2nc3ccccc3s2)CC1` here?
A: inactive: 7.3%

Q: How did the Potency turn out when `CCc1nnc(NC(=O)CSc2nnc(-c3ccccc3O)n2-c2ccc(C)cc2C)s1` was run?
A: inconclusive: 31.6 µM [inhibitor, single point]

Q: Which Potency does the source give for `Cc1ccc(CSc2nnc(CS(=O)Cc3ccc(Cl)cc3Cl)n2C)cc1` (stereo unspecified) here?
A: inconclusive: 10 µM [inhibitor, partial curve]

Q: `Cn1c(-c2cnn(-c3ccccc3)c2-n2cccc2)n[nH]c1=S` was tested. Which “activity change, negative = inhibition” value did it give?
A: inactive: -17.1%

Q: Which Potency does the source give for `CC(=O)Oc1ccc2oc(=O)c3c(c2c1)CCCN3C(=O)CN1CCN(c2ncccn2)CC1` here?
A: inconclusive: 3.16 µM [inhibitor, single point]

Q: Which Potency does the source give for `CCOC(=O)c1c(CC(C)C)csc1NC(=O)CCl` here?
A: inconclusive: 31.6 µM [inhibitor, single point]

Q: With `COc1ccc(C2C(C#N)=C(C)NC3=C2C(=O)CC(C)(C)C3)c(OC)c1` (stereo unspecified) as the compound, how does the “activity change, negative = inhibition” value read?
A: inactive: -3.68% [at 46.1 µM]

Q: How did the Potency turn out when `Cc1ccc(N(CC(=O)NCCSCc2ccco2)S(=O)(=O)c2ccc(C)cc2)cc1` was run?
A: inconclusive: 12.6 µM [inhibitor, single point]

Q: `O=c1cc(N=Nc2ccc(Cl)cc2)[nH]c(=O)[nH]1` was tested. Which Potency did it give?
A: inconclusive: 12.6 µM [activator, single point]

Q: How did the “activity change, negative = inhibition” value turn out when `CCOc1ccc(OCc2ccc(C(=O)N3CCCC3)o2)cc1` was run?
A: inactive: 2.45% [at 46.1 µM]

Q: How did the “activity change, negative = inhibition” value turn out when `CCN(CC)S(=O)(=O)c1cccc(-c2n[nH]c(=S)n2/N=C/c2ccc(OC)cc2)c1` was run?
A: inactive: -36.5%

Q: `CCn1c(SCC(=O)Nc2ccccc2N2CCCCC2)nc2c1c(=O)n(C)c(=O)n2C` was tested. Which Potency did it give?
A: inconclusive: 10 µM [inhibitor, single point]

Q: Which “activity change, negative = inhibition” value does the source give for `O=C(Nc1nc2cc(Cl)ccc2s1)C1CCCN(S(=O)(=O)c2cccc3cccnc23)C1` (stereo unspecified) here?
A: inactive: -21% [at 46.1 µM]

Q: `O=[N+]([O-])c1ccc(/C=N/Nc2nc(N3CCCCC3)nc(N3CCCCC3)n2)o1` was tested. Which Potency did it give?
A: inconclusive: 12.6 µM [inhibitor, single point]

Q: `CC1(C)CC(=O)c2c(nc(SCC(=O)Nc3nsc(-c4ccccc4)n3)c(C#N)c2-c2ccccc2)C1` was tested. Which Potency did it give?
A: inconclusive: 10 µM [inhibitor, partial curve]

Q: For `CCc1ccc(NC(=O)c2cnn3ccccc23)cc1`, which Potency is on record?
A: inconclusive: 0.398 µM [inhibitor, partial curve]

Q: For `O=C1/C(=C/c2ccc(F)cc2)SC(=S)N1Nc1ncc(C(F)(F)F)cc1Cl`, which Potency is on record?
A: inconclusive: 10 µM [inhibitor, partial curve]

Q: `COC(=O)c1c(NC(C)=O)sc2c1CCCC2` was tested. Which “activity change, negative = inhibition” value did it give?
A: inactive: 9.86% [at 46.1 µM]

Q: With `CCN1/C(=C\C(C)=O)Sc2ccc(OC)cc21` as the compound, how does the “activity change, negative = inhibition” value read?
A: inactive: -4.86% [at 46.1 µM]

Q: How did the Potency turn out when `CCOC(=O)c1cc(-c2nnc(SCC(=O)Nc3ccc(F)cc3)o2)c(C)nc1C` was run?
A: inconclusive: 0.794 µM [inhibitor, single point]

Q: For `CC1(c2ccc(OCC#N)cc2)C=C(c2ccc(OCC#N)cc2)n2nc(C(F)(F)F)nc2N1` (stereo unspecified), which “activity change, negative = inhibition” value is on record?
A: inactive: -48.9%

Q: Which “activity change, negative = inhibition” value does the source give for `CCOc1ccc(C(=O)NN2C(=O)C3C4C=CC(O4)C3C2=O)cc1` (stereo unspecified) here?
A: inactive: -5.35% [at 46.1 µM]

Q: How did the Potency turn out when `CN1/C(=C/C(=O)c2ccc(Cl)cc2)Sc2cc3c(cc21)OCO3` was run?
A: inconclusive: 12.6 µM [inhibitor, single point]

Q: Which Potency does the source give for `CCCCNC(=S)NNC(=O)c1ccoc1C` here?
A: inconclusive: 12.6 µM [inhibitor, single point]

Q: For `COc1ccc(N2CCN(C(=O)COc3ccc(Cl)cc3Cl)CC2)cc1`, which Potency is on record?
A: inconclusive: 25.1 µM [inhibitor, single point]

Q: How did the Potency turn out when `CC(C)(C)n1nnnc1C(c1cccc(C#N)c1)N1CCCc2ccccc21` (stereo unspecified) was run?
A: inconclusive: 12.6 µM [inhibitor, single point]

Q: How did the Potency turn out when `Cc1ccc(-c2nc(N)s[n+]2-c2ccccc2)cc1` was run?
A: inconclusive: 25.1 µM [inhibitor, single point]
